Results taken from PubChem BioAssay AID1259418 (Broad Institute, 2018).
The campaign covered roughly 3,400 compounds. About 840 (25%) were called active. The shares of active, inactive and inconclusive entries below differ from those in the screen.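 The calls were made as follows: active = fitted half-maximal concentration of signal decrease at or below twice the sample's top tested concentration; inconclusive = flat curve between -70 and -30 percent, or poor fit; inactive = flat within 30 percent, signal rise, or potency above limit.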

Assay: T. gondii growth inhibition with IFN-gamma, dose response, cell-based, ME49Luc, HeLa, luciferase, 72 h (AID 1259418)
Conditions: T. gondii ME49Luc in IFN-y HeLa, at 19.5 µM, active compounds read low, -100% = high-dose IFN-γ control wells

| Compound | max activity |
| --- | --- |
| O=C(c1ccnnc1)N1C[C@H]2CN(Cc3cccc(F)c3)C[C@H]2C1 | inconclusive: 28.3% |
| C/C=C/c1ccc(C2[C@@H]3CN(C(=O)C4CCC4)C[C@H]2N3)cc1 (some centres undefined) | inconclusive: 83.6% |
| Cc1ncsc1CCCl | inconclusive: 23.4% |
| CC(=O)NC1CCSC1=O (centres undefined) | inconclusive: 29.4% |
